In PubChem BioAssay AID1345083 (National Center for Advancing Translational Sciences (NCATS), 2018):
Out of some 94,000 compounds screened, about 6,200 (6.6%) were called active. Inconclusive results, whose numbers are uncertain, are shown with a selection of clear calls. Calls follow the shape of the dose curve; as a rule, active = well fitted inhibition curve with a large enough effect; inconclusive = small, poorly fitted or top-dose-only effect; inactive = flat fitted curve, though single readings scatter. A potency beside an inconclusive call is a rough fit, not a confirmed value.

Assay: Cytotoxic Profiling in HEK 293 Cell Line of Diverse Libraries Using Quantitative High-Throughput Screening; also: nearly all actives have a fitted effect of over 60% in size
Details: HEK 293 viability, ATP luminescence (CellTiter-Glo), 48-72 h; activity change, negative = cytotoxicity: at 115 µM (top of the series) unless noted; series mostly up to 115 µM
How it was run: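 ATP-coupled CellTiter-Glo luminescence served as viability read-out, recorded 10 min after reagent addition at room temperature. HEK 293 cells, 250 cells/well, had been incubated with pintool-transferred compound for 48 or 72 hr at 37 degree Celsius.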
% is scaled to controls: 0 for no effect and ±100 for the full control effect; potency is read from the fitted curve at half-maximal effect; tags tell the direction and shape of the fitted curve.

Structure (SMILES)	Potency	activity change, negative = cytotoxicity	outcome
O=C1NCCCCCCN(S(=O)(=O)c2ccc3c(c2)CCC3)[C@H]2CCC[C@@H]12	inconclusive: 44.7 µM [inhibitor, partial curve, poor fit]		
O=C(Cc1cccc(F)c1)N1CCC(n2cc(-c3nc(-c4ccccc4)no3)nn2)CC1		inactive: -0.696%	
COc1cccc(C(=O)Nc2cccc(-c3nnc4n3CCCC4)c2)c1OC		inactive: -12.3%	
O=C(NC[C@H]1CCc2ccccc2O1)c1cccc(-n2cnnc2)c1		inactive: 1.66%	
CCN1c2cc(C(=O)Nc3ccc(OC)c(OC)c3)ccc2C(=O)N2CCCCC21 (stereo not given)	inconclusive: 35.5 µM [inhibitor, partial curve, poor fit]		
O=C(C1CN(c2ccccc2)C(=O)N1)N1CCOCC1 (stereo not given)		inactive: -4.27% [at 172 µM]	
Cc1nn(-c2ccccc2)c(Oc2ccccc2)c1CCC(=O)NCC1CCCO1 (stereo not given)	inconclusive: 89.1 µM [inhibitor, single point]		
Cc1cccc(OC[C@H]2C[C@@H](N(C)C)[C@H](O)[C@@H]2O)n1			inactive [at 172 µM]
Cc1nc2cnccn2c1C(=O)NCc1ccc(C(F)(F)F)cc1		inactive: -9.32%	
CC(C)c1noc([C@@H]2C[C@H]3C(=O)NCCCCCCN(C(=O)CC4CCCCC4)[C@H]3C2)n1	inconclusive: 79.4 µM [inhibitor, partial curve, poor fit]		
O=C(NCC12CCC=C1N(CC1CC1)C(=O)CC2)C1CCOCC1 (stereo not given)		inactive: -5.47%	
O=C1NC2(CCN(Cc3ccccc3)CC2)Oc2ccccc21	inconclusive: 50.1 µM [inhibitor, partial curve, poor fit]		
CN(Cc1ccc(-c2ccccc2)cc1)C(=O)Cc1ccccn1	active: 63.1 µM		
CC(C)C[C@@H]1N[C@H](C(=O)NC2CCCC2)Cc2cn(Cc3nccn3C)c3cccc1c23	active: 39.8 µM		
CCc1cccc(NC(=O)N2CCc3nc4cc(-c5ccc(OC)cc5)[nH]n4c(=O)c3C2)c1	inconclusive: 44.7 µM [inhibitor, partial curve, poor fit]		
CNC(=O)N1CCC(C2CCN(C(=O)C3CC=CC3)C2)CC1 (stereo not given)		inactive: -10.2%	
O=C(C1CCCCC1)N1CCC2(CC1)NC(=O)N(c1cccc(F)c1)N2	inconclusive: 44.7 µM [inhibitor, partial curve, poor fit]		
CCn1cc(CN(C)C(=O)c2oc3c(C)c(C)ccc3c2C)cn1	inconclusive: 50.1 µM [inhibitor, partial curve, poor fit]		
Cc1noc(-c2nc(-c3cccc(Cl)c3)no2)n1	inconclusive: 89.1 µM [inhibitor, single point]		
O=C(O)C1CC2(CCN(C(=O)NCc3ccccc3F)CC2)CN1 (stereo not given)			inactive
Cc1cccc(-c2noc([C@@H]3Cc4nc[nH]c4CN3C(=O)c3ccc(-c4ccccc4)cc3)n2)c1	active: 35.5 µM		
COc1cccc(-c2cc(C(=O)N(C)c3ccccc3)c3cnn(C)c3n2)c1	inconclusive: 50.1 µM [inhibitor, partial curve, poor fit]		
c1ccc(CCCN2CC[C@H](c3nnc(-c4ccccc4)o3)C2)cc1	inconclusive: 126 µM [inhibitor, partial curve, poor fit]		

Structure (SMILES)	Potency	activity change, negative = cytotoxicity	outcome
COCCN1C(=O)[C@@H]2C[C@@H](CN2Cc2ccc(C(F)(F)F)cc2)Oc2ccccc21	active: 79.4 µM		
CC(CCc1ccccc1)NC(=O)C1CN(C2CCCC2)C(=O)N1 (stereo not given)		inactive: -1.52% [at 172 µM]	
Cn1nc(C(=O)N2CCCN(C(=O)C3CC3)C(c3ccccc3)CC(=O)NCC2)c2ccccc21 (stereo not given)		inactive: -5.03%	
COc1cncc(-c2cccc(COc3ccc4c(cnn4CC[S+](C)(=O)[O-])c3)c2)c1	active: 56.2 µM		
CC1Oc2ccc(NC(=O)c3c(F)cccc3F)cc2CN(C2CCCc3ccccc32)C1=O (stereo not given)	inconclusive: 39.8 µM [inhibitor, full curve, poor fit]		
COc1ccccc1C(=O)N1CCC(C(=O)N2CCC(c3nc4ncccc4[nH]3)CC2)C1 (stereo not given)			inactive
Cc1ncsc1CN1CCCCCCNC(=O)CC1c1ccccc1 (stereo not given)	inconclusive: 35.5 µM [inhibitor, partial curve, poor fit]		
O=[S+]([O-])(c1ccc(Br)cc1)c1nnn2c1nc(N1CCCCC1)c1ccccc12		inactive: -5.58%	
Cn1cc(CN2C[C@H](C(=O)NCc3ccccc3)C[C@H]2c2cccc(C(F)(F)F)c2)cn1	inconclusive: 79.4 µM [inhibitor, single point]		
Cc1nn(-c2ccccc2)c2c1C(C1CC1)N(C1CCN(Cc3ccc(F)cc3)CC1)C2=O (stereo not given)		inactive: 2.32%	
c1c(-c2nc(C3CCOC3)no2)sc2c1CCCC2 (stereo not given)	inconclusive: 79.4 µM [inhibitor, partial curve, poor fit]		
COC[C@@H]1[C@H](C(=O)N2CCN(Cc3ccccc3)CC2)CCC(=O)N1C		inactive: 3.31%	
CCOC(=O)c1ccc(NC(=O)Cn2c(=O)n(CC)c(=O)c3c2cc(C)n3C)cc1	inconclusive: 39.8 µM [inhibitor, full curve, poor fit]		
CCOCC(=O)N1CCC(N2C(=O)C3(CCCCC3)C2c2ccncc2)CC1 (stereo not given)		inactive: -4.21%	
COc1ccc(NC(=O)c2ccc(Cn3ccn4nc5c(c4c3=O)CCCC5)cc2)cc1OC	inconclusive: 28.2 µM [inhibitor, full curve]		
O=C1N(Cc2ccccc2)CCOC12CCN(Cc1cc(F)ccc1F)CC2	inconclusive: 70.8 µM [inhibitor, partial curve]		
COc1ccc(-c2ccccc2C(=O)NCc2cccnc2)nn1		inactive: 0.228% [at 172 µM]	
Cn1nccc1C(=O)N1CCC2(CC1)CC(OCC1CC1)CCO2 (stereo not given)	inconclusive: 89.1 µM [inhibitor, single point]		
COCc1cc(C[C@H]2CNCC[C@H]2CC(=O)NCc2ccc(OC)c(OC)c2)no1	inconclusive: 126 µM [inhibitor, single point]		
Cc1noc(C)c1-c1cc2c(cc(C)n2CCN(C)C)c(Nc2ccn(C)n2)n1	active: 89.1 µM		
Cc1ccc(-c2cccc(CN3CCCC(NC(=O)C4CC4)C3)c2)cc1Cl (stereo not given)	active: 35.5 µM		
Cc1ccccc1Cn1cc(-c2ccncc2)cc1C(=O)Nc1ccc2c(c1)OCO2	active: 35.5 µM		
